Source: PubChem BioAssay AID686970 (National Center for Advancing Translational Sciences (NCATS), 2013)
Screen size: about 360,000 compounds; about 6,000 (1.7%) were called active. Inconclusive means that the source gave no clear call. Such entries were picked first, then a sample of the others. Calls follow the shape of the dose curve; as a rule, active = well fitted cell-killing curve with a large enough effect; inconclusive = small, poorly fitted or top-dose-only effect, or effect the other way; inactive = flat fitted curve, though single readings scatter. Potencies of inconclusive entries are left out as doubtful fits.

Experiment: qHTS for induction of synthetic lethality in tumor cells producing 2HG: qHTS for the HT-1080-NT fibrosarcoma cell line;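 also: NT is the 2HG producing partner of a matched IDH1 knockdown line; nearly all actives have a fitted effect of over 55% in size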;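 as to activity, negative = less viability: 0% = DMSO-treated cells and -100% = media-only wells without cells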
Conditions: HT-1080-NT fibrosarcoma viability, CellTiter-Glo ATP luminescence, 48 h; activity, negative = less viability: at 46.1 µM (top of the series) unless noted
Method in brief: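 Compounds were tested in concentration-response format on HT-1080-NT cells for 48 hours at 37 degrees C. Cell viability came from CellTiter-Glo luminescence; curves were classified by r2, response magnitude and activity.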
Potency is read from the fitted curve at half-maximal effect; tags tell the direction and shape of the fitted curve.

Structure (SMILES) | Potency | activity, negative = less viability
O=S(=O)(/C=C/c1ccccc1)Oc1ccccc1 | inconclusive [cytotoxic, single point] | 
COc1ccccc1N1CCN(c2nc(C)cc(=O)[nH]2)CC1 |  | inconclusive: 30.3%
CC(=O)c1ccc(N2CCN(CC(O)COC(c3ccccc3)c3ccccc3)CC2)cc1 (stereo not given) | inconclusive [cytotoxic, partial curve] | 
Cc1cccc(-c2nc(Nc3cccc(O)c3)c3ccccc3n2)c1 | inactive | 
CN(c1ccccc1C(=O)Nc1ccc2c(c1)OCO2)S(C)(=O)=O | inconclusive [cytotoxic, partial curve, poor fit] | 
COc1ccc(NC(=O)CSc2nc3ccccc3c3nc4ccccc4n23)cc1 | inconclusive [cytotoxic, partial curve] | 
CCN1CCN(Cc2ccc(NC(=O)c3ccc(C)c(NC(=O)c4cncc(-c5cccs5)c4)c3)cc2C(F)(F)F)CC1 | active: 20.6 µM | 
CC1(C(=O)NCc2cccc(Cl)c2)Cc2c(-c3ccc4c(c3)OCO4)ccnc2O1 (stereo not given) |  | inconclusive: -41.7%
CC(C)OP(=O)(OC(C)C)/C(C=O)=N\Nc1ccc([N+](=O)[O-])cc1 | active: 20.6 µM | 
Cc1ccc(C(C)C)c(OCC(=O)Nc2ccc3c(c2)nc(CN2CCCC2)n3C)c1 | active: 16.4 µM | 
N#Cc1ccc2[nH]cc(C3c4cc(F)ccc4C=C(c4ccsc4)N3c3ccc(C#CCCO)cc3)c2c1 (stereo not given) | inconclusive [cytotoxic, single point] | 
CCc1cc(=O)oc2c(C)c(OCC(=O)NCCCN3CCCC3=O)ccc12 | inactive | 
Cc1ccc(NC(=S)N(CCCN2CCCC2)Cc2cccn2Cc2ccc(Cl)cc2)cc1 | active: 23.1 µM | 
CC(C)(C)c1ccc(-c2noc(CCC(=O)NCc3ccco3)n2)cc1 | inconclusive [cytotoxic, partial curve] | 
O=[N+]([O-])c1ccc(O)c2ncccc12 | active: 6.51 µM | 
CN1CCN(S(=O)(=O)NC[C@H]2O[C@@H](n3cnc4c(N)ncnc43)[C@H](O)[C@@H]2O)CC1 |  | inconclusive: -6.07% [cytotoxic]
Cn1cnc2c(=O)[nH]cc([N+](=O)[O-])c21 | inactive | 
Cc1cc(C)cc(NC(=O)CSc2ccc(-c3ccccn3)nn2)c1 | inconclusive [cytotoxic, single point] | 
Cc1ccc(C(=O)/C=C/c2c(C)nn(-c3ccccc3)c2Cl)cc1 | inconclusive [cytotoxic, single point] | 
O=C(CN1CCN(c2ccc(F)cc2)CC1)N1CCOCC1 | inactive | 
COc1ccc(C)cc1NCc1cc(=O)oc2cc(-c3ccccc3)c(O)cc12 | inconclusive [cytotoxic, single point] | 
S=c1nc(-c2ccccc2)n(CCCN2CCOCC2)c2c1CCCC2 | inconclusive [rising, partial curve] | 
COc1ccc(NC(=O)c2cc(-c3ccc(C)o3)nc3ccccc23)cc1 | inconclusive [cytotoxic, single point] | 

Structure (SMILES) | Potency | activity, negative = less viability
COc1cc2c(cc1OC)CN(C(=O)CN1C(=O)c3ccc([N+](=O)[O-])cc3C1=O)CC2 | inactive | 
CN(/N=C/c1ccc(Br)o1)C1=NS(=O)(=O)c2ccccc21 | inconclusive [cytotoxic, single point] | 
Cc1cc(C)nc(S/C=C/C(=O)c2ccccc2)n1 | active: 5.17 µM | 
O=C(/C=C/c1ccc(Cl)cc1)NC(=S)Nc1ccccc1C(=O)O | inconclusive [cytotoxic, single point] | 
OC(c1ccc(Cl)c(F)c1)c1ncc(-c2cccc(C(F)(F)F)c2)[nH]1 (stereo not given) | inconclusive [cytotoxic, single point] | 
COc1cncc(-c2cnc3sc(NCCc4ccccn4)nn23)c1 | inconclusive [cytotoxic, partial curve] | 
Nc1c(Br)cc2c([nH]c(=O)c3ccccc32)c1Br | inactive | 
Cc1cc(Nc2ccc([N+](=O)[O-])cc2)nc2ccccc12 | inconclusive [cytotoxic, partial curve] | 
O=C(CSc1ccccc1)N(c1ccc(Br)cc1)c1nccs1 | inactive | 
COc1ccc(C(CNC(=O)c2cccc(S(=O)(=O)Nc3ccccc3Cl)c2)N2CCOCC2)cc1 (stereo not given) |  | inconclusive: -33.5% [cytotoxic]
CC(O)(c1cccc(F)c1)c1nc(-c2cc(F)cc(F)c2)cs1 (stereo not given) | inconclusive [cytotoxic, single point] | 
COc1cccc(C(=O)Nc2ccc(N3CCN(C(=O)c4ccco4)CC3)cc2)c1 | active: 23.1 µM | 
Cc1cc(/C=N/n2cnnc2)c(C)n1-c1ccc2ncccc2c1 | inconclusive [cytotoxic, single point] | 
Cc1ccc(-c2ccc(CN3C(C)C(=O)N(Cc4cn(CC5CCCCC5)nn4)CCS3(=O)=O)cc2)cc1 (stereo not given) | inconclusive [cytotoxic, partial curve] | 
COc1cc(O)c(C(=O)/C=C/c2ccccc2)c(OC)c1 | inconclusive [cytotoxic, single point] | 
CCS(=O)(=O)c1ccc(O)c(NC(=O)/C=C/c2ccc(Cl)cc2)c1 | inconclusive [cytotoxic, single point] | 
Cc1c(C)c2cc(Cl)c(O)c(CN3CCN(C)CC3)c2oc1=O | inconclusive [rising, full curve, poor fit] | 
O=C(Nc1ccccc1N1CCOCC1)C1CCN(S(=O)(=O)c2ccccc2F)CC1 | inactive | 
CCOC(=O)[C@]12CCCC=C1N(Cc1ccc3c(c1)OCO3)C(=O)[C@H](CC(=O)NCCc1ccccc1OC)C2 | inconclusive [cytotoxic, single point] | 
O=C(NNc1nc(-c2ccccc2)cs1)c1cccs1 |  | inconclusive: -19.2% [cytotoxic]
CC(c1ccccc1)n1c(N2CCN(C)CC2)nc2c1c(=O)[nH]c(=O)n2C (stereo not given) | inactive | 
Cc1ccc(NC(=O)C2(C)CCN2C(=O)Cc2ccccc2)cc1C (stereo not given) | inactive | 
